# Out of some 290,000 compounds screened, about 2,100 (0.72%) were called active. The inconclusive results got no clear call from the source; some entries with a clear call stand among them for comparison. Calls follow the shape of the dose curve; as a rule, active = well fitted inhibition curve with a large enough effect; inconclusive = small, poorly fitted or top-dose-only effect, or effect the other way; inactive = flat fitted curve, though single readings scatter. Where the call is inconclusive, the potency comes from a doubtful curve fit.
# Biological target: Fructose-bisphosphate aldolase (Giardia intestinalis (strain ATCC 50803 / WB clone C6)) (UniProt A8B2U2)
# Chain of UniProt A8B2U2 (A8B2U2 whole entry, looked up): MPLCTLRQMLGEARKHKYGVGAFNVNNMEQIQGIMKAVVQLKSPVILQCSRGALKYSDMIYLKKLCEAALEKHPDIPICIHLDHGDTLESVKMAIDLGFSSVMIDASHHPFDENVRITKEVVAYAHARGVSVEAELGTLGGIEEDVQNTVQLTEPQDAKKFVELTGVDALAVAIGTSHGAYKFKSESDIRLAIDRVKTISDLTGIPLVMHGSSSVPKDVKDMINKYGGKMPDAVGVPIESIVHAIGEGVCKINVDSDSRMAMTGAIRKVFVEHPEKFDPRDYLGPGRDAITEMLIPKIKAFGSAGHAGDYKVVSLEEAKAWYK
# Test: qHTS Assay for Inhibitors of Fructose-1,6-bisphosphate Aldolase from Giardia Lamblia; also: nearly all actives have a fitted effect of over 55% in size
# Settings: purified Giardia FBPA; activity, negative = inhibition: at 59.6 µM (top of the series) unless noted
# Method in brief: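 40 nM FBPA preincubated 10 min at RT with compound (up to 57.5 uM final), then substrate plus GAPDH/TPI/NAD/arsenate coupling and diaphorase/resazurin added. Fluorescence read after 20 min at RT, 525/598 nm.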
# % is scaled to controls: 0 for no effect and ±100 for the full control effect; potency is read from the fitted curve at half-maximal effect; tags tell the direction and shape of the fitted curve.
Compound,Potency,"activity, negative = inhibition"
O=S(=O)(/N=C(/c1ccccc1)N1CCCCC1)c1ccccc1,inactive,–
OCCNCCCCSc1ccc(Cl)cc1,"inconclusive: 19.9 µM [inhibitor, partial curve]",–
COc1cccc(/C=N/NC(=O)C(C)n2nc(C)c([N+](=O)[O-])c2C)c1O (stereo unspecified),"inconclusive: 3.97 µM [inhibitor, full curve]",–
Cc1ccccc1N1C(=O)/C(=C/c2ccco2)C(=O)NC1=S,"inconclusive: 31.6 µM [inhibitor, single point]",–
O=C(Nc1ccc(S(=O)(=O)Nc2ncccn2)cc1)c1ccccc1,"inconclusive: 35.5 µM [inhibitor, partial curve]",–
O=C(O)c1cccc(-c2nnn(Cc3ccccc3)n2)c1,"inconclusive: 25.1 µM [activator, single point]",–
COC(=O)Oc1nsnc1N1CCOCC1,active: 14.1 µM,–
COc1cccc(NC(=O)CN(C)CC(=O)Nc2ccccc2-c2ccccc2)c1,"inconclusive: 17.7 µM [inhibitor, partial curve]",–
Cn1cccc1C(=O)N1CCC2(CCCN(C(=O)Nc3cccc(C#N)c3)C2)CC1,inactive,–
O=C(COc1ccc(Cl)cc1Cl)Nc1nnc(C2=COCCO2)o1,"inconclusive: 17.7 µM [inhibitor, single point]",–
CCOc1ccc(NC(=O)CSC2=C(C#N)C(c3ccc4c(c3)OCO4)CC(=O)N2)cc1 (stereo unspecified),"inconclusive: 35.4 µM [activator, single point]",–
Cc1ccccc1N1CCN(Cc2c[nH]c3ccccc23)CC1,"inconclusive: 19.9 µM [inhibitor, partial curve]",–
Cc1c(Cl)cccc1NS(=O)(=O)c1cn(C)c(=O)n(C)c1=O,"inconclusive: 20 µM [inhibitor, partial curve, poor fit]",–
CCOc1ccc(Cl)cc1CNCCCSc1nc(C)cc(C)n1,"inconclusive: 22.4 µM [inhibitor, partial curve]",–
CCOC(=O)c1c(NC(=O)C(Sc2ccccc2)c2ccccc2)sc(C(N)=O)c1C (stereo unspecified),inactive,–
O=C(CCNC(=O)c1ccc(Br)cc1)NCC1COc2ccccc2O1 (stereo unspecified),inactive,–
Cc1ccc(C(=O)N/C(=C\c2ccc(-c3ccccc3[N+](=O)[O-])o2)C(=O)NCCN(C)C)cc1,active: 5.01 µM,–
Cc1cc2c(Nc3cccc(O)c3)ncnc2s1,inactive,–
CCOc1ccccc1/C=N/NC(=O)c1cccc(S(=O)(=O)N(CC)CC)c1,"inconclusive: 19.9 µM [inhibitor, partial curve]",–
Cc1ccc(C(=O)OCC(=O)c2c[nH]c3ccccc23)cc1NC(=O)c1ccco1,inactive,–
O=C(N/N=C\C=C\c1ccco1)c1cncc(Br)c1,"inconclusive: 17.7 µM [inhibitor, single point]",–
O=C(CS(=O)c1ccc(C(F)(F)F)cc1[N+](=O)[O-])Oc1ccccc1 (stereo unspecified),"inconclusive: 7.06 µM [inhibitor, partial curve]",–
Cc1ccccc1C(=O)NC(=S)Nc1ccc2[nH]c(=O)[nH]c2c1,"inconclusive: 31.5 µM [inhibitor, single point]",–
Cc1cc(O)c2c(c1O)C(=O)C(O)=C(O)C2=O,"inconclusive: 14.1 µM [inhibitor, partial curve]",–

Compound,Potency,"activity, negative = inhibition"
N#CCN1CCC(c2cc(-c3ccco3)n[nH]2)CC1,"inconclusive: 9.98 µM [inhibitor, partial curve]",–
C=C1c2c(Cl)ccc(O)c2C(O)=C2C(=O)[C@]3(O)C(O)=C(C(N)=O)C(=O)C(N(C)C)C3C(O)C12 (stereo partly specified),"inconclusive: 11.2 µM [inhibitor, partial curve]",–
Cc1cc(Br)ccc1NCc1ccccn1,"inconclusive: 12.6 µM [inhibitor, partial curve]",–
CC(=O)NC(Cc1ccccc1)C(=O)NC(Cc1ccccc1)C(=O)O (stereo unspecified),inactive,–
COc1cc(/C=C/c2nc(-c3ccccc3O)n[nH]2)cc(OC)c1OC,inactive,–
CCn1c(SCc2nc3scc(-c4ccccc4)c3c(=O)[nH]2)nnc1-c1cccs1,"inconclusive: 19.9 µM [inhibitor, partial curve]",–
CCCCn1c(SCC(=O)O)nc2ccccc21,–,inconclusive: 39% [activator]
CC1=NN(c2nc3ccccc3[nH]2)C(=O)/C1=C/N(C)C,active: 15.8 µM,–
COCCOCCn1c(/C=C/c2ccccc2)nc2ccccc21,"inconclusive: 19.9 µM [inhibitor, partial curve]",–
CN1CCN(/N=C/c2nc(-c3ccc(Cl)cc3)n3ccccc23)CC1,"inconclusive: 19.9 µM [inhibitor, single point]",–
O=C(N/N=C/c1ccccn1)c1cccc([N+](=O)[O-])c1,active: 15.8 µM,–
CCCn1c(C2CCCN2c2nc(-c3cccc(Br)c3)cs2)nc2cc(Cl)c(Cl)cc21 (stereo unspecified),"inconclusive: 12.6 µM [inhibitor, partial curve]",–
CN1c2ccccc2-c2nc3ccccc3n2C1c1ccccn1 (stereo unspecified),"inconclusive: 14.1 µM [inhibitor, partial curve]",–
O=C(O)c1ccc(OCCOc2ccccc2)cc1,"inconclusive: 19.9 µM [activator, partial curve]",–
CC(=O)N(C)c1ccc(OCC(O)COc2ccc(N(C)C(C)=O)cc2)cc1,inactive,–
Cc1cc(-c2n[nH]c(=S)n2Cc2ccco2)n(C)n1,"inconclusive: 12.6 µM [inhibitor, partial curve]",–
CCOC(=O)N1CCC(N2C(=O)c3ccccc3C2Nc2cc(OC)c(OC)c(OC)c2)CC1 (stereo unspecified),"inconclusive: 15.8 µM [inhibitor, single point]",–
CN(C)c1nnnn1-c1ccccc1Oc1ncc(C(F)(F)F)cc1Cl,"inconclusive: 19.9 µM [inhibitor, partial curve]",–
Cc1[nH]n(C)c(=O)c1[N+](=O)[O-],inactive,–
CCCCNc1nc2cccnc2s1,inactive,–
Cc1ccc(N(C(=O)c2nsc(Cl)c2Cl)C(C(=O)NC2CCCC2)c2ccc(O)cc2)cc1C (stereo unspecified),inactive,–
Cc1ccc2c(c1)nnn2C1CCN(C(=O)C23CC4CC(CC(C4)C2)C3)CC1,inactive,–
Cc1ccc(CSc2nnc(-c3ccccc3N)c(=O)[nH]2)cc1,"inconclusive: 25.1 µM [activator, single point]",–
Cc1onc(-c2c(Cl)cccc2Cl)c1C(=O)N/N=C(\N)COc1ccc(Cl)cc1,"inconclusive: 10 µM [activator, partial curve]",–

Compound,Potency,"activity, negative = inhibition"
CC(OCC(O)CNCC1COc2ccccc2O1)c1ccc(Cl)cc1 (stereo unspecified),"inconclusive: 22.3 µM [inhibitor, partial curve]",–
c1ccc(COc2cccc(CN3CCCCC3)c2)cc1,"inconclusive: 17.8 µM [inhibitor, partial curve]",–
CCn1c(SCC(=O)N/N=C/C(C)=C/c2ccco2)nnc1-c1ccccc1,"inconclusive: 11.2 µM [inhibitor, partial curve]",–
O=S(=O)(Nc1cc(Sc2cccc3cccnc23)c(O)c2ccccc12)c1ccccc1,"inconclusive: 3.54 µM [inhibitor, full curve]",–
O=C(N/N=C/c1cccnc1)c1cc2ccccc2cc1O,"inconclusive: 25.1 µM [inhibitor, single point]",–
Cc1nnc(NNS(=O)(=O)c2ccc(Cl)cc2)[nH]c1=O,"inconclusive: 17.7 µM [inhibitor, partial curve]",–
COc1ccc(C(=O)Nc2ccc(S(=O)(=O)Nc3nccc(C)n3)cc2)cc1[N+](=O)[O-],inactive,–
CCN1CCc2c(sc(N)c2C(N)=O)C1,"inconclusive: 19.9 µM [inhibitor, single point]",–
N#C/C(=C\c1ccncc1)c1nc2ccccc2c(=O)[nH]1,"inconclusive: 12.6 µM [inhibitor, partial curve]",–
CCOC(=O)CCN1C(=O)[C@H]2[C@H]3[C@H](O)[C@H](O)C/C(=N/NC(=O)OCc4ccc(OC)cc4)[C@H]3CC[C@@H]2C1=O,–,inactive: 4.35% [at 12.9 µM]
CCN1CCOC(CC(=O)Nc2cccc([N+](=O)[O-])c2)C1=O (stereo unspecified),inactive,–
O=c1[nH]c2cc3c(cc2cc1CN(Cc1ccccc1)Cc1nnnn1Cc1ccco1)OCCO3,"inconclusive: 15.8 µM [inhibitor, partial curve]",–
COc1ccccc1CN1CCc2c([nH]c3ccccc23)C1,"inconclusive: 28.2 µM [inhibitor, partial curve]",–
COc1ccc(N2C(=O)/C(=C/c3cc(C)n(-c4ccc(C)cn4)c3C)C(=O)NC2=S)c(OC)c1,"inconclusive: 19.9 µM [inhibitor, single point]",–
COc1cc(C(=O)OC(C)CN2C(C)CCCC2C)cc(OC)c1OC (stereo unspecified),"inconclusive: 31.6 µM [inhibitor, single point]",–
CC(=O)Nc1ccc2sc(NC(=O)CN3CCOCC3)nc2c1,active: 4.47 µM,–
COc1cc(OC)nc(Oc2cc(C=O)ccc2OC)n1,inactive,–
CC(=O)c1sc(C(=O)O)c(-c2ccco2)c1-c1ccco1,"inconclusive: 15.8 µM [inhibitor, single point]",–
Nc1ccccc1-n1c(=O)n(Cc2ccccc2F)c(=O)c2[nH]cnc21,"inconclusive: 12.6 µM [inhibitor, partial curve]",–
CCCn1c2ccccc2c2nnc(SCC(=O)Nc3cc(C)on3)nc21,inactive,–
Cc1cccc(C)c1N=C1NN=C(c2ccccc2F)CS1,inactive,–
Oc1ccc(/C=N/Nc2cc(N3CCCC3)nc(N3CCCC3)n2)cc1,"inconclusive: 0.316 µM [inhibitor, full curve]",–
CCN(CC(=O)Nc1ccccc1C(F)(F)F)C(=O)CCc1c(C)[nH]c(=O)c(C#N)c1C,inactive,–

# Source: PubChem BioAssay AID2451 (National Center for Advancing Translational Sciences (NCATS), 2010)
